# According to the supplement of paper PMC8728848:
# The other results are listed elsewhere or left out.
# B1: CCL1 (Coprinopsis cinerea) (protein)
# chain: MDTQAKPPAGRYVIYNRVLSPNGEKLALTYPGYQREALTLTPLHHSANQIWILNNWDATTSSLTPETARNTQVGWGSGNVPIVLPPGNYVWTLASSAGGYIIQDGGKTVYWNAGEAVANTKVSIGGDNGLQARWIFERV
# Experiments:
# Assay in all cases: glycan array binding signal (z-score within array); higher = stronger binding
# Conditions in all cases: glycan notation: IUPAC condensed, linker removed
# [1] = biological target: GlcNAc(a1-4)Gal(b1-4)GlcNAc(b1-3)Gal(b1-4)GlcNAc(b1-3)Gal(b1-4)GlcNAc
# Procedure, shortened: (§1)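 Arrays were curated from the Consortium for Functional Glycomics database, 3228 in total, and kept only where the protein sequence was available. Binding is expressed as a within-array Z-score. This score was averaged across arrays of the same protein sequence at different concentrations or buffers and across linkers, and negative values can be read as non-binding.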
# [2] = biological target: GlcNAc(a1-4)Gal(b1-4)GlcNAc(b1-3)Gal(b1-4)[Fuc(a1-3)]GlcNAc(b1-3)Gal(b1-4)[Fuc(a1-3)]GlcNAc
# Procedure, shortened: as §1
# [3] = biological target: GlcNAc(a1-6)Gal(b1-4)GlcNAc
# Procedure, shortened: as §1
# [4] = biological target: GlcNAc(b1-2)Gal(b1-3)GalNAc
# Procedure, shortened: as §1
# [5] = biological target: GlcNAc(b1-2)Man(a1-3)[GlcNAc(b1-2)Man(a1-6)]Man(b1-4)GlcNAc(b1-4)GlcNAc
# Procedure, shortened: as §1
# [6] = biological target: GlcNAc(b1-2)Man(a1-3)[GlcNAc(b1-2)Man(a1-6)]Man(b1-4)GlcNAc(b1-4)[Fuc(a1-6)]GlcNAc
# Procedure, shortened: as §1
# [7] = biological target: GlcNAc(b1-2)Man(a1-3)[GlcNAc(b1-4)][GlcNAc(b1-2)Man(a1-6)]Man(b1-4)GlcNAc(b1-4)GlcNAc
# Procedure, shortened: as §1
# [8] = biological target: GlcNAc(b1-2)[GlcNAc(b1-4)]Man(a1-3)[GlcNAc(b1-2)Man(a1-6)]Man(b1-4)GlcNAc(b1-4)GlcNAc
# Procedure, shortened: as §1
# [9] = biological target: GlcNAc(b1-2)[GlcNAc(b1-4)]Man(a1-3)[GlcNAc(b1-4)][GlcNAc(b1-2)Man(a1-6)]Man(b1-4)GlcNAc(b1-4)GlcNAc
# Procedure, shortened: as §1
# [10] = biological target: GlcNAc(b1-2)[GlcNAc(b1-4)]Man(a1-3)[GlcNAc(b1-4)][GlcNAc(b1-2)[GlcNAc(b1-6)]Man(a1-6)]Man(b1-4)GlcNAc(b1-4)GlcNAc
# Procedure, shortened: as §1
# [11] = biological target: GlcNAc(b1-2)[GlcNAc(b1-4)]Man(a1-3)[GlcNAc(b1-4)][GlcNAc(b1-2)[GlcNAc(b1-6)]Man(a1-6)]Man(b1-4)GlcNAc(b1-4)[Fuc(a1-6)]GlcNAc
# Procedure, shortened: as §1
# [12] = biological target: GlcNAc(b1-2)[GlcNAc(b1-6)]Man(a1-6)[GlcNAc(b1-2)Man(a1-3)]Man(b1-4)GlcNAc(b1-4)GlcNAc
# Procedure, shortened: as §1
# [13] = biological target: GlcNAc(b1-2)[GlcNAc(b1-6)]Man(a1-6)[GlcNAc(b1-2)Man(a1-3)]Man(b1-4)GlcNAc(b1-4)[Fuc(a1-6)]GlcNAc
# Procedure, shortened: as §1
# [14] = biological target: GlcNAc(b1-2)[GlcNAc(b1-6)]Man(a1-6)[GlcNAc(b1-2)Man(a1-3)][GlcNAc(b1-4)]Man(b1-4)GlcNAc(b1-4)GlcNAc
# Procedure, shortened: as §1
# GlcNAc(b1-3)Gal = biological target: GlcNAc(b1-3)Gal
# Procedure, shortened: as §1
# [15] = biological target: GlcNAc(b1-3)Gal(b1-3)GalNAc
# Procedure, shortened: as §1
# GlcNAc(b1-3)Gal(b1-4)Glc = biological target: GlcNAc(b1-3)Gal(b1-4)Glc
# Procedure, shortened: as §1
# [16] = biological target: GlcNAc(b1-3)Gal(b1-4)GlcNAc
# Procedure, shortened: as §1
# [17] = biological target: GlcNAc(b1-3)Gal(b1-4)GlcNAc(b1-3)Gal(b1-4)GlcNAc
# Procedure, shortened: as §1
# GlcNAc(b1-3)GalNAc = biological target: GlcNAc(b1-3)GalNAc
# Procedure, shortened: as §1
# GlcNAc(b1-3)Man = biological target: GlcNAc(b1-3)Man
# Procedure, shortened: as §1
# [18] = biological target: GlcNAc(b1-3)[GlcNAc(b1-4)][GlcNAc(b1-6)]GlcNAc
# Procedure, shortened: as §1
# [19] = biological target: GlcNAc(b1-3)[GlcNAc(b1-6)]Gal(b1-4)GlcNAc
# Procedure, shortened: as §1
# [20] = biological target: GlcNAc(b1-3)[GlcNAc(b1-6)]GalNAc
# Procedure, shortened: as §1
# [21] = biological target: GlcNAc(b1-4)Gal(b1-4)GlcNAc
# Procedure, shortened: as §1
# GlcNAc(b1-4)GlcNAc = biological target: GlcNAc(b1-4)GlcNAc
# Procedure, shortened: as §1
# [22] = biological target: GlcNAc(b1-4)GlcNAc(b1-4)GlcNAc
# Procedure, shortened: as §1
# [23] = biological target: GlcNAc(b1-4)GlcNAc(b1-4)GlcNAc(b1-4)GlcNAc(b1-4)GlcNAc
# Procedure, shortened: as §1
# [24] = biological target: GlcNAc(b1-4)GlcNAc(b1-4)GlcNAc(b1-4)GlcNAc(b1-4)GlcNAc(b1-4)GlcNAc
# Procedure, shortened: as §1
# [25] = biological target: GlcNAc(b1-4)[GlcNAc(b1-6)]GalNAc
# Procedure, shortened: as §1
# [26] = biological target: GlcNAc(b1-6)Gal(b1-4)GlcNAc
# Procedure, shortened: as §1
# GlcNAc(b1-6)GalNAc = biological target: GlcNAc(b1-6)GalNAc
# Procedure, shortened: as §1
# GlcNAc3Prop(b1-4)GlcNAc = biological target: GlcNAc3Prop(b1-4)GlcNAc
# Procedure, shortened: as §1
# [27] = biological target: GlcNAc6S(b1-3)Gal(b1-4)GlcNAc
# Procedure, shortened: as §1
# Kdn(a2-3)Gal(b1-3)GalNAc = biological target: Kdn(a2-3)Gal(b1-3)GalNAc
# Procedure, shortened: as §1
# Kdn(a2-3)Gal(b1-3)GlcNAc = biological target: Kdn(a2-3)Gal(b1-3)GlcNAc
# Procedure, shortened: as §1
# Kdn(a2-3)Gal(b1-4)Glc = biological target: Kdn(a2-3)Gal(b1-4)Glc
# Procedure, shortened: as §1
# Kdn(a2-3)Gal(b1-4)GlcNAc = biological target: Kdn(a2-3)Gal(b1-4)GlcNAc
# Procedure, shortened: as §1
# [28] = biological target: Kdn(a2-3)Gal(b1-4)[Fuc(a1-3)]GlcNAc
# Procedure, shortened: as §1
# Kdn(a2-6)Gal(b1-4)GlcNAc = biological target: Kdn(a2-6)Gal(b1-4)GlcNAc
# Procedure, shortened: as §1
# [29] = biological target: Man(a1-2)Man(a1-2)Man(a1-3)Man
# Procedure, shortened: as §1
# [30] = biological target: Man(a1-2)Man(a1-2)Man(a1-6)[Man(a1-3)]Man
# Procedure, shortened: as §1
# Man(a1-2)Man(a1-3)Man = biological target: Man(a1-2)Man(a1-3)Man
# Procedure, shortened: as §1
# [31] = biological target: Man(a1-2)Man(a1-3)[Man(a1-2)Man(a1-6)]Man
# Procedure, shortened: as §1
# [32] = biological target: Man(a1-2)Man(a1-3)[Man(a1-2)Man(a1-6)]Man(a1-6)[Man(a1-2)Man(a1-2)Man(a1-3)]Man
# Procedure, shortened: as §1
binder,measurement,setting,value
B1,glycan array binding signal (z-score),[1],-0.135
same,glycan array binding signal (z-score),[2],0.517
same,glycan array binding signal (z-score),[3],-0.136
same,glycan array binding signal (z-score),[4],-0.116
same,glycan array binding signal (z-score),[5],-0.122
same,glycan array binding signal (z-score),[6],-0.153
same,glycan array binding signal (z-score),[7],-0.17
same,glycan array binding signal (z-score),[8],-0.15
same,glycan array binding signal (z-score),[9],-0.142
same,glycan array binding signal (z-score),[10],-0.141
same,glycan array binding signal (z-score),[11],-0.163
same,glycan array binding signal (z-score),[12],-0.148
same,glycan array binding signal (z-score),[13],-0.139
same,glycan array binding signal (z-score),[14],-0.143
same,glycan array binding signal (z-score),GlcNAc(b1-3)Gal,-0.138
same,glycan array binding signal (z-score),[15],-0.169
same,glycan array binding signal (z-score),GlcNAc(b1-3)Gal(b1-4)Glc,-0.138
same,glycan array binding signal (z-score),[16],-0.144
same,glycan array binding signal (z-score),[17],-0.15
same,glycan array binding signal (z-score),GlcNAc(b1-3)GalNAc,-0.169
same,glycan array binding signal (z-score),GlcNAc(b1-3)Man,-0.145
same,glycan array binding signal (z-score),[18],-0.058
same,glycan array binding signal (z-score),[19],-0.162
same,glycan array binding signal (z-score),[20],-0.141
same,glycan array binding signal (z-score),[21],-0.136
same,glycan array binding signal (z-score),GlcNAc(b1-4)GlcNAc,-0.149
same,glycan array binding signal (z-score),[22],-0.15
same,glycan array binding signal (z-score),[23],-0.154
same,glycan array binding signal (z-score),[24],-0.149
same,glycan array binding signal (z-score),[25],-0.132
same,glycan array binding signal (z-score),[26],-0.171
same,glycan array binding signal (z-score),GlcNAc(b1-6)GalNAc,-0.154
same,glycan array binding signal (z-score),GlcNAc3Prop(b1-4)GlcNAc,-0.139
same,glycan array binding signal (z-score),[27],-0.185
same,glycan array binding signal (z-score),Kdn(a2-3)Gal(b1-3)GalNAc,-0.079
same,glycan array binding signal (z-score),Kdn(a2-3)Gal(b1-3)GlcNAc,-0.141
same,glycan array binding signal (z-score),Kdn(a2-3)Gal(b1-4)Glc,-0.155
same,glycan array binding signal (z-score),Kdn(a2-3)Gal(b1-4)GlcNAc,-0.123
same,glycan array binding signal (z-score),[28],0.329
same,glycan array binding signal (z-score),Kdn(a2-6)Gal(b1-4)GlcNAc,-0.118
same,glycan array binding signal (z-score),[29],-0.152
same,glycan array binding signal (z-score),[30],-0.133
same,glycan array binding signal (z-score),Man(a1-2)Man(a1-3)Man,-0.164
same,glycan array binding signal (z-score),[31],-0.124
same,glycan array binding signal (z-score),[32],-0.146
